Structures can show the parent of a compound that is named as a salt. This is one part of the list. Single values are uncertain, as repeats are few or missing.

The test system of the test is Ov4Carbo. The test is described as follows: log2 surviving fraction (library drug vs vehicle, or drug + carboplatin vs carboplatin alone; relative to plate median); ovarian cancer lines: OVCAR4 is platinum-sensitive and Ov4Carbo platinum-resistant; higher = more cell survival. The settings on record: library drug concentration 10 µM; 7 days; carboplatin co-treatment 5 µM.
In the case of `CCCCC(CC)CNC(=N)NC(=N)NCCCCCCNC(=N)NC(=N)NCC(CC)CCCC` (stereo not drawn) [Alexidine HCl], the log2 surviving fraction is -8.19.

`CCCNC(C)C(=O)Nc1ccccc1C` (stereo not drawn) [Prilocaine]: the log2 surviving fraction came out at 0.116.

`CC(=O)OCC(=O)[C@@]1(O)CC[C@H]2[C@@H]3CCC4=CC(=O)CC[C@]4(C)[C@H]3C(=O)C[C@@]21C` [Cortisone acetate (Cortone)]: the log2 surviving fraction turned out to be 0.567.

For the compound `COc1ccc2[nH]c([S@@+]([O-])Cc3ncc(C)c(OC)c3C)nc2c1` [Esomeprazole magnesium (Nexium)], the log2 surviving fraction is -0.401.

In the case of `CC1=C(/C=C/C(C)=C/C=C/C(C)=C/C=C/C=C(C)/C=C/C=C(C)/C=C/C2=C(C)CCCC2(C)C)C(C)(C)CCC1` [Beta Carotene], the log2 surviving fraction worked out at 0.326.

Take `CSc1nc2cc(Cl)c(Oc3cccc(Cl)c3Cl)cc2[nH]1` [Triclabendazole]: the log2 surviving fraction was -0.25.

Consider `O=C(O)c1cc(=O)c2ccccc2o1` [Chromocarb], for which the log2 surviving fraction was determined as 0.239.

In the case of `Nc1nc(F)nc2c1ncn2[C@@H]1O[C@H](CO)[C@@H](O)[C@@H]1O` [Fludarabine (Fludara)], the log2 surviving fraction is -1.3.

As to `COCCCOc1cc(C[C@@H](C[C@H](N)[C@@H](O)C[C@H](C(=O)NCC(C)(C)C(N)=O)C(C)C)C(C)C)ccc1OC` [Aliskiren hemifumarate], the log2 surviving fraction was -0.594.

Regarding `CC[C@@H]1C(=O)OC[C@@H]1Cc1cncn1C` [Pilocarpine HCl], the log2 surviving fraction came out at 0.946.

In the case of `COc1ccc([C@@H]2Sc3ccccc3N(CCN(C)C)C(=O)[C@@H]2OC(C)=O)cc1` [Diltiazem HCl (Tiazac)], the log2 surviving fraction worked out at 0.229.

Regarding `O=c1n(CCCN2CCN(c3cccc(Cl)c3)CC2)nc2ccccn12` [Trazodone hydrochloride (Desyrel)], the log2 surviving fraction was 0.37.

On to `C[N+]1(C)[C@@H]2C[C@@H](OC(=O)C(O)(c3cccs3)c3cccs3)C[C@H]1[C@@H]1O[C@@H]12` [Tiotropium Bromide hydrate], for which the log2 surviving fraction is -0.201.

The values above are taken from the supplement of paper PMC8047034.
